This experiment deals with Plasmodium falciparum. Nature of the experiment: Primary screen in NF54 nanoGlo assay, in single point, at 2uM, 72h; a lower Z score goes with more inhibition. The experiment is classed as functional, Erythrocyte. The following applies: timepoint 72 hour.

Hit rate of the full screen: of about 150,000 compounds, about 540 (0.36%) showed an effect of 50% or more. The list shows a part of the results.

Results on 86 compounds are retold here after ChEMBL document CHEMBL4888484, “Replenishing the malaria drug discovery pipeline: Screening and hit evaluation of the MMV Hit Generation Library 1 (HGL1) against asexual blood stage Plasmodium falciparum ,using a nano luciferase reporter read-out” (2022).

The % Inhibition is the drop in the measured response relative to a control, in per cent.

For the compound `N#Cc1ccc(N2CCC(O)(Cc3cccc(F)c3)CC2)cn1`, the “% Inhibition” value was -8% and the Z score amounted to 1.52.
`CCOC(=O)Cc1cnc(N(C)C(=O)c2cccc(CC#N)c2)s1`: the “% Inhibition” value is recorded as -10% and the Z score stood at 1.93.
Take `OC[C@H]1CCCCCN1Cc1ccnc2ccccc12`: the “% Inhibition” value is 3% and the Z score was -0.63.
Turning to `CCN1C[C@@H](C(=O)Nc2ccncc2C(C)=O)CC1=O`, the “% Inhibition” value is given as 2% and the Z score was -0.43.
Turning to `O=S(=O)(NCc1cc2ccccc2o1)c1ccc2ccccc2c1`, the “% Inhibition” value is listed as -10% and the Z score amounted to 1.56.
For `Cc1cc(N(C)C(=O)c2nn(C(C)C)cc2Br)ccn1`, the “% Inhibition” value is given as 0% and the Z score was 0.
On to `CN(Cc1ccccc1)C1(CNC(=O)C2CCOCC2)CCC1`, for which the “% Inhibition” value is reported as -13% and the Z score turned out to be 1.56.
`O=C(CC1CCCO1)NCC1CC12CCc1ccccc12` (configuration not stated): the “% Inhibition” value was -7% and the Z score came out at 0.96.
`CC(C)(C)n1ncc2c1NC(=O)C[C@@H]2c1ccc(F)cc1Cl`: the “% Inhibition” value turned out to be 30% and the Z score is recorded as -3.37.
Consider `Cc1ccc(S(=O)(=O)NCc2nnc(C(=O)Nc3ccccc3F)s2)cc1`, for which the “% Inhibition” value worked out at 28% and the Z score is -3.23.
For the compound `O=C([C@H]1CCCN(c2[nH]cnc3ncnc2-3)C1)N1CCN(c2ccccc2)CC1`, where the note is “2 µM”, the “% Inhibition” value was -3% and the Z score is on record as -3.22.
Regarding `CCc1nc(C)c(CN2CCC[C@H](CN(C)S(C)(=O)=O)C2)o1`, the “% Inhibition” value turned out to be 0% and the Z score stood at 0.01.
On to `O=C(NC1CCC(CO)CC1)C1CC=CC1` (configuration not stated), for which the “% Inhibition” value is listed as -1% and the Z score was 0.12.
For `Cc1ccc2nc(NC(=O)CNC(=O)C3CCCCC3)sc2c1`, in that order: 31% and -3.52.
For `O=C(Nc1ccc(-c2nc3ccccc3s2)cc1Cl)c1ccccn1`, the “% Inhibition” value was -12% and the Z score came to 1.08.
`O=C(CC1CCC(F)(F)CC1)Nc1cc2cc[nH]c2cn1`: the “% Inhibition” value was -6% and the Z score is given as 1.21.
On to `COC(=O)[C@H](C)N(C(=O)CO)c1c(C)cccc1C`, for which the “% Inhibition” value is listed as 39% and the Z score is given as -4.97.
As to `CCc1nc(C)c(NC(=O)Nc2cnn(CCF)c2)s1`, the “% Inhibition” value is listed as -3% and the Z score was 0.41.
Regarding `O=C(C[C@H]1CCCO1)N(Cc1ccccn1)c1ccc(F)cc1`, the “% Inhibition” value is given as 0% and the Z score was 0.05.
Regarding `Cc1cc(C(=O)N2CCC3(CC2)CC(=O)N(Cc2ccccc2)C3)ccc1F`, the “% Inhibition” value is listed as -13% and the Z score is reported as 1.3.
Turning to `COc1ccc(CC(=O)N2CCc3ncccc32)nc1`, the “% Inhibition” value is -10% and the Z score amounted to 1.64.
As to `CCCc1cc(C(=O)N[C@H]2CCCC[C@@H]2OCc2ccccc2)[nH]n1`, the “% Inhibition” value is given as -18% and the Z score turned out to be 2.29.
Turning to `CC(=O)N(C)c1ccccc1NC(=O)c1ccccc1C`, the “% Inhibition” value is given as -8% and the Z score is given as 1.12.
On to `CCOc1ccc(-c2csc(=O)[nH]2)cc1`, for which the “% Inhibition” value is given as -4% and the Z score was found to be 0.45.
As to `Cc1cc(F)ccc1-c1cccc(C(=O)N[C@H]2CC[C@@H](N)C2)c1`, the “% Inhibition” value is on record as -9% and the Z score came to 1.22.
Regarding `O=C(NCc1cccnc1)N1CCC([C@H](O)C(F)(F)F)CC1`, the “% Inhibition” value is listed as -4% and the Z score came out at 0.5.
As to `Cc1cccc(C(=O)Nc2cc(C(=O)O)ccc2N2CCC(CCN3CCCCC3)CC2)c1`, the “% Inhibition” value was -5% and the Z score is listed as 0.82.
`CCCc1cnc(C)nc1NC[C@H]1CCN(c2cnn(C)c(=O)c2)C1`: the “% Inhibition” value was -8% and the Z score worked out at 1.46.
`CC(C)n1cc(C(=O)N2CCOc3ccc(CN4CCN(c5ccccc5)CC4)cc3C2)cn1`: the “% Inhibition” value came out at 2% and the Z score was -0.28.
Turning to `COc1ccc(-c2cnc3[nH]ccc3c2)cc1C[C@@H](CN)CO`, the “% Inhibition” value is on record as -19% and the Z score stood at 2.66.
With `Cc1ccc(N[C@@](C)(C(=O)NCC(=O)NC(C)C)c2ccccc2)cc1`, the “% Inhibition” value was -9% and the Z score is recorded as 1.03.
Take `CCN(c1ccccc1)S(=O)(=O)NC(=O)C1CCC(F)(F)CC1`: the “% Inhibition” value was -2% and the Z score amounted to 0.26.
For `Cc1ccc(Cl)c(-c2nccn2C2CCOCC2)c1F` the same measures were 0% and -0.06.
For `CCCc1ccc(S(=O)(=O)N2CCc3c(c(-c4nnc(-c5ccc(C)cc5)o4)nn3C)C2)cc1` the same measures were -14% and 1.58.
Consider `COc1ccc(C2C(C(=O)N3CCN(c4ccccn4)CC3)c3ccccc3C(=O)N2C2CCCCC2)cc1` (configuration not stated), for which the “% Inhibition” value is given as 0% and the Z score came to 0.03.
For the compound `Cn1cc(C(=O)N2CCC[C@H](c3nc4ccccc4s3)C2)c(=O)[nH]c1=O`, the “% Inhibition” value is reported as 2% and the Z score is given as -0.24.
In the case of `Cc1ccc(CCN(C[C@H]2CCCO2)C(=O)c2cc[nH]c(=O)c2)cc1`, the “% Inhibition” value is on record as -8% and the Z score amounted to 1.05.
As for `COCCNC(=O)CNC(=O)c1cccc(Br)c1`, the “% Inhibition” value is on record as -18% and the Z score is 3.52.
Take `C#CCNC(=O)NCCNS(=O)(=O)c1cc(C)ccc1C`: the “% Inhibition” value is reported as -13% and the Z score is reported as 1.16.
For `O[C@@]1(CCNc2nc3cc(Br)ccc3o2)CCCOC1`, the “% Inhibition” value is -3% and the Z score is 0.5.
Take `COCCN1C[C@H]2CN(Cc3nccn3C)CCN2C1=O`: the “% Inhibition” value came out at 18% and the Z score is reported as -2.11.
`CC(=O)Nc1ccc2nc(N3CCC(C(=O)NC4CC4)CC3)cc(C)c2c1`: the “% Inhibition” value is 8% and the Z score was -1.23.
For `Cc1oc2ccc(OCc3ccccc3)cc2c1C(=O)N1C[C@H](O)C[C@H]1C(=O)O` the same measures were -11% and 2.23.
For `Cc1c(Cl)cccc1-n1nc(C)c2c(C)cc(OCC(=O)NCc3ccc4c(c3)OCO4)nc21`, in that order: -14% and 1.54.
Turning to `O=C(NCC1CCN(C(=O)[C@H]2CCOC2)CC1)c1ccoc1`, the “% Inhibition” value is listed as -16% and the Z score was determined as 1.68.
With `CC1(C)C2CCC(C2)C1CC1OCC(C[N+]2(Cc3ccccc3)CCCCC2)O1` (configuration not stated), the “% Inhibition” value was -7% and the Z score is recorded as 1.37.
Regarding `CCn1cc(C(=O)N2CCC[C@H]2C(=O)N2CCOCC2)c(C)n1`, the “% Inhibition” value is -20% and the Z score is 1.78.
In the case of `CN1CCN(c2ccccc2NC(=O)c2ccc3ccccc3c2)CC1`, the “% Inhibition” value is -13% and the Z score is listed as 1.44.
For the compound `FC(F)(F)c1cnc(Cc2ccc(OC[C@H]3CC3(Cl)Cl)cc2)c(Cl)c1`, the “% Inhibition” value is on record as 34% and the Z score was -1.07.
As to `O=C(Nc1cnc(-n2ccnc2)nc1)c1ccccn1`, the “% Inhibition” value is -5% and the Z score was found to be 0.76.
On to `Cc1cc(F)ccc1Cc1noc([C@@]2(C)CCNC(=O)C2)n1`, for which the “% Inhibition” value was 8% and the Z score is on record as -1.4.
As for `Cc1nn(CCNS(=O)(=O)CCC(F)(F)F)c(C)c1-c1ccsc1`, the “% Inhibition” value is listed as -1% and the Z score turned out to be 0.09.
With `CCN(C(=O)C1CCN(c2cc(=O)n(C)c(=O)n2C)CC1)c1cccc(Cl)c1`, the “% Inhibition” value was -19% and the Z score is recorded as 2.96.
Turning to `CN(Cc1cnc2ccccc2n1)C(=O)CCN(C)[C@H]1CCS(=O)(=O)C1`, the “% Inhibition” value is 5% and the Z score is reported as -0.81.
Consider `CCCc1ccc2oc(-c3nc(C)no3)c(C)c2c1`, for which the “% Inhibition” value was found to be 6% and the Z score was -1.22.
For `O=C(CCc1nnc2ccc(N3CCCCC3)nn12)Nc1ccc2c(c1)OCO2`, in that order: -15% and 2.5.
As to `O=C1COc2ccc3c(c2)CCN(C(=O)c2ccc(O)cc2)[C@H]3c2cccc(c2)OCCCN1`, the “% Inhibition” value is -10% and the Z score was determined as 1.83.
For the compound `O=C1[C@@H](n2nnn(-c3cccs3)c2=O)CCN1CC(F)(F)F`, the “% Inhibition” value is -8% and the Z score was 1.48.
For the compound `CN(CC(=O)NC1Cc2ccccc2C1)Cc1ccncc1`, the “% Inhibition” value stood at 2% and the Z score is -0.21.
Consider `CC(C)c1cc(C(=O)NCc2cccnc2Oc2ccc(F)cc2F)on1`, for which the “% Inhibition” value is -9% and the Z score is reported as 1.25.
`N#Cc1ccc(N[C@H]2CCc3nnc(-c4ccc(F)cc4)n3C2)nc1`: the “% Inhibition” value is given as -20% and the Z score was 1.83.
For the compound `CN(Cc1ccncc1Cl)Cc1noc2c1CCCC2`, the “% Inhibition” value was found to be 13% and the Z score is listed as -1.67.
Turning to `Cc1ccc(NC(=O)N2CC(c3nc(C(C)C)nn3C)C2)cc1F`, the “% Inhibition” value came to 37% and the Z score was -4.94.
As to `Cc1cnc(C)c(NCCc2ccn(C)n2)n1`, the “% Inhibition” value is listed as -1% and the Z score came out at 0.15.
As to `COC(=O)CNc1cc(Cl)cc(C(N)=O)c1OC`, the “% Inhibition” value is listed as 5% and the Z score is given as -0.82.
`Cc1cn2nc(C(=O)N3CCCC3)cc2c(N(C)Cc2ccccc2)n1`: the “% Inhibition” value was -4% and the Z score is recorded as 0.47.
For the compound `CNC(=O)[C@@H]1Cc2cc(OC)c(OC)cc2CN1C(=O)CCCc1nnc2cccnn12`, the “% Inhibition” value is recorded as -8% and the Z score stood at 1.
For `CC[C@H]1CC[C@H](C(=O)NCCC(C)(C)O)CC1`, in that order: -7% and 1.4.
Regarding `O=C(Nc1cccn2cnnc12)c1cccc(C(F)(F)F)c1`, the “% Inhibition” value is -31% and the Z score amounted to 4.77.
On to `CCNC(=O)CN(CC)C(=O)COc1ccc(Cl)c(C)c1`, for which the “% Inhibition” value turned out to be 32% and the Z score is given as -0.63.
As to `CCn1cnc2c1CN(S(=O)(=O)c1ccc(Cl)s1)CC2`, the “% Inhibition” value is on record as -9% and the Z score was 1.05.
For `COC1CN(C(=O)N(c2ccccn2)[C@@H](C)c2ccco2)C1`, in that order: 7% and -0.97.
Regarding `CN(CC1CCC1)C(=O)Cc1csc(NC(=O)c2ccco2)n1`, the “% Inhibition” value is on record as -9% and the Z score was 0.95.
For `CN(C)C(=O)c1coc2nc3ccccc3nc12`, in that order: -12% and 1.52.
With `CCOc1cc(CN2CCc3c(c(CN(C(C)=O)c4ccccc4)nn3C)C2)ccc1O`, the “% Inhibition” value is recorded as -15% and the Z score is listed as 1.36.
For `Cc1c(C(=O)N2CCCCCC2)c(S(=O)(=O)N(C)C2CCCCC2)c(C)n1C`, in that order: -11% and 2.12.
`CC[C@H](NCC(=O)NC1CC1)c1cc(F)ccc1F`: the “% Inhibition” value worked out at 0% and the Z score worked out at 0.03.
For the compound `CCC(CC)n1nc(NC(=O)CNC)cc1C`, the “% Inhibition” value is -1% and the Z score turned out to be 0.13.
On to `Cc1nc(N(C)C)sc1CN1CCCC(C(C)O)C1` (configuration not stated), for which the “% Inhibition” value was -8% and the Z score amounted to 0.85.
For `CC(C)NC(=O)c1cccc(N2CCCN(Cc3ccccc3)C2=O)c1`, in that order: -3% and 0.58.
For `NC(=O)[C@H]1CCCN1Cc1cc(-c2ccccc2)[nH]n1`, the “% Inhibition” value is recorded as -13% and the Z score is reported as 1.43.
On to `c1cncc(COC2CCN(c3ncncn3)CC2)c1`, for which the “% Inhibition” value was -17% and the Z score is on record as 2.14.
In the case of `O=C(NC1CCN(Cc2ccccc2)CC1)[C@H]1C[C@@H]1c1cccnc1`, the “% Inhibition” value is given as 4% and the Z score was -0.41.
As for `CCc1csc(CNC(=O)c2ccc(N3CCC[C@H]3CO)nc2)n1`, the “% Inhibition” value is listed as -18% and the Z score came to 3.37.
Regarding `Cc1nsc2c1[C@@H](c1ccc3cccc(O)c3n1)CC(=O)N2`, the “% Inhibition” value was -3% and the Z score was 0.31.
Consider `CCn1cc(CC(=O)Nc2ccc(OC)c(OC)c2)c2cccnc21`, for which the “% Inhibition” value turned out to be 10% and the Z score is recorded as -1.17.
